Consider 51 molecules from article PMC12040169 (PLOS Biology, 2025).

This is one part of the list.

The subject of this assay is T1, C. trachomatis L2/434/Bu expressing GFP (CTL2-GFP).
T1 construct: L2/434/Bu GFP intracellular growth in HeLa cells
Also on record: species or system HeLa; C. trachomatis total inclusion area by high-content imaging, normalised to DMSO. Conditions: total inclusion area; 28.5 h, 10 µM; inhibitor. An excerpt: In this process, we also complemented the assay described above with an imaging-based readout (Fig 1B). After measurements of bulk GFP and resorufin fluorescence, cells were fixed, stained with the DNA dye Hoechst, and imaged at a high-content imaging platform to detect chlamydial inclusions (GFP) and host cell nuclei (Hoechst). The total area and number of inclusions in individual wells and the number of nuclei then served as additional proxies for chlamydial growth and host cell viability. […] MICs were calculated as described above.
Take `CS(=O)(=O)CCC(C(=O)O)N1C(=O)c2ccc(Oc3ccc(Cl)cc3)cc2C1=O` (stereo not drawn) [CBK266377]: the “% of control remaining” value was 125.483.

Consider `CCCc1n[nH]c(-c2cc(C(F)(F)F)ccc2F)c1C(=O)OCC` [CBK107231], for which the “% of control remaining” value was 78.2627.

Turning to `COc1ccc(-n2cc(-c3ccccn3)nn2)cc1OC` [CBK113133], the “% of control remaining” value worked out at 113.42.

As for `CCn1c(SCC(=O)Nc2ccc([N+](=O)[O-])cc2O)nnc1-c1ccccc1` [CBK268730], the “% of control remaining” value was 94.8997.

For the molecule `Cc1ccccc1NC(=O)/C(=C\c1cccnc1)NC(=O)c1ccccc1` [CBK261632], the “% of control remaining” value was 98.9872.

Consider `Cc1cc(N2CCC(O)CC2)nc(N)n1` [CBK167265], for which the “% of control remaining” value turned out to be 98.6501.

Turning to `CCN(Cc1ccccc1)C1CCN(Cc2cccc(OC)c2)CC1` [CBK264654G], the “% of control remaining” value stood at 77.3498.

Consider `COc1ccc(/C=C/C(=O)NCc2ccc(S(N)(=O)=O)cc2)cc1OC` [CBK265483], for which the “% of control remaining” value was found to be 105.286.

Consider `COc1ccc(-c2nn(-c3ccccc3)cc2C(=O)Nc2ccc(C(=O)O)cc2)cc1` [CBK296121], for which the “% of control remaining” value came out at 82.1797.

On to `CC(=O)Nc1ccc2nc(NC(=O)c3ccc(C#N)cc3)sc2c1` [CBK287309], for which the “% of control remaining” value is 105.822.

Turning to `Cc1ccc(Cc2cnc(NC(=O)NC3CCOCC3)s2)cc1Cl` [CBK304440], the “% of control remaining” value is given as 32.2057.

For the molecule `COc1ccc(C(=O)N[C@H]2C[C@H]3C(=O)Nc4ccc(-c5ccsc5)cc4C(=O)N3C2)cc1` [CBK289362], the “% of control remaining” value is on record as 95.7469.

With `CC1(C)CC(=O)c2sc(NC(=O)C3COc4ccccc4O3)nc2C1` (stereo not drawn) [CBK144104], the “% of control remaining” value was 90.5313.

Consider `O=C(CCn1c(C(F)(F)F)cc2cccnc21)NC1CCCC1` [CBK284864], for which the “% of control remaining” value was determined as 81.7033.

Take `CS(=O)(=O)c1ccc(CN2CCOC[C@H]2c2nc(-c3ccc(F)cc3)c[nH]2)cc1` [CBK289295]: the “% of control remaining” value worked out at 97.9681.

For `CC1(C)C[C@H](NC(=O)c2ccccc2)[C@@]2(CCC(=O)NC3CC3)CC[C@](C)(O)C[C@@H]12` [CBK289045], the “% of control remaining” value is on record as 116.794.

For `CCOC(=O)C(NC(=O)c1cn[nH]c1)c1cccc(C)c1C` (stereo not drawn) [CBK304175], the “% of control remaining” value stood at 22.1591.

For `N#CCCCN1CCCC2(C1)NCCc1c2[nH]c2cc(F)ccc12` (stereo not drawn) [CBK039826], the “% of control remaining” value is 94.1349.

On to `CN(C)CCCC(=O)N1CCN(C(=O)c2ccco2)CC1` [CBK144445], for which the “% of control remaining” value was 97.1897.

Take `C[C@H](Nc1nc(-c2ccoc2)cnc1N)c1ccccc1` [CBK063707]: the “% of control remaining” value is given as 135.532.

For the molecule `COCCNC(=O)c1nnn(-c2ccc(Br)cc2)c1C` [CBK300524], the “% of control remaining” value came out at 100.303.

As for `Cc1cc(O)nc2sc(C(=O)c3ccccc3)c(N)c12` [CBK115334], the “% of control remaining” value came out at 96.9645.

As for `CC(C)(C)C(=O)NC(=S)Nc1ccc(Cc2ccncc2)cc1` [CBK269717], the “% of control remaining” value was determined as 86.7173.

Consider `COCC(=O)N1CCc2sccc2C1c1ccc(NC(=O)c2ccc(F)cc2)cc1` (stereo not drawn) [CBK286435], for which the “% of control remaining” value was 96.7914.

Turning to `COCCCOc1cncc(N2CCCC2)n1` [CBK115759], the “% of control remaining” value stood at 99.5573.

Consider `OC(Cn1nnc2ccccc21)Cn1c(-c2ccccc2)c(-c2ccccc2)c2ccc3ccccc3c21` (stereo not drawn) [CBK264054G], for which the “% of control remaining” value was 66.7172.

As for `O=C(CSc1nc2sc3c(c2c(=O)[nH]1)CCCC3)NCCN1CCOCC1` [CBK264064], the “% of control remaining” value was found to be 100.365.

For `O=C(Nc1ccc(Cl)cc1C(=O)NCCN1CCOCC1)c1ccc(Cl)cc1Cl` [CBK265749], the “% of control remaining” value stood at 139.396.

Take `Cc1nnc(Sc2nc3ccccc3nc2NC(C)C)s1` [CBK093731]: the “% of control remaining” value came out at 98.7822.

Turning to `CC(=O)Nc1ccc(S(=O)(=O)NNC(=O)c2cccc(Cl)c2)cc1` [CBK261694], the “% of control remaining” value came out at 96.6075.

Regarding `CCOc1ccc(-c2noc(CCC(=O)NC)n2)cc1OC` [CBK269226], the “% of control remaining” value came out at 61.1212.

On to `FC(F)(F)c1ccc(N2CCNCC2)nc1SCc1ccccc1Cl` [CBK003964A], for which the “% of control remaining” value is 37.9398.

As to `O=C(O)/C=C/C(=O)NNC(=O)c1ccccc1Br` [CBK261786], the “% of control remaining” value is listed as 98.0071.

Regarding `COc1ncc(-c2cnc(N)c(-c3ccc(C=O)cc3)n2)c(OC)n1` [CBK064110], the “% of control remaining” value came out at 135.616.

Turning to `O=C(CC(CN1CCCCC1)C(=O)O)Nc1cccc(O)c1` (stereo not drawn) [CBK286788], the “% of control remaining” value was determined as 105.141.

Turning to `CCN(CC)C(=O)NC(C)c1cccc(S(=O)(=O)NC)c1` (stereo not drawn) [CBK305134], the “% of control remaining” value was determined as 37.2154.

Consider `N=C(N)NCC(=O)N(CCCc1cc(C(F)(F)F)cc(C(F)(F)F)c1)c1ccc2c(c1)OCO2` [CBK000702T], for which the “% of control remaining” value stood at 19.0437.

`CC(=O)c1c(C)oc(C)c1C(C)=O` [CBK012535]: the “% of control remaining” value came to 100.16.

In the case of `O=C(Nc1cc(Cl)nc(Cl)c1)N(Cc1ccc2ccccc2c1)CC1CCNCC1` [CBK049773], the “% of control remaining” value was determined as 26.6365.

On to `COc1ccccc1CN(Cc1cccnc1)C(=O)CCn1cnnn1` [CBK307106], for which the “% of control remaining” value was determined as 78.2039.

Regarding `O=C(CN1CCCCCC1)N/N=C/c1ccccc1Cl` [CBK261589], the “% of control remaining” value came to 91.4658.

For `C[C@@H](c1ccccc1)n1c(=O)[nH]c2ncc(-c3ccc(N(C)C)cc3)nc21` [CBK064352], the “% of control remaining” value is 101.319.

As to `CCN1CCC2(C/C=C/CCOc3ccccc3C(=O)NCCCNC2=O)CC1` [CBK292060], the “% of control remaining” value was found to be 89.3843.

With `CCOC(=O)c1nc(C2CCN(c3cccc(F)c3C#N)CC2)n[nH]1` [CBK304711], the “% of control remaining” value turned out to be 101.571.

For `Cc1nn(-c2ccc3nnc(C)n3n2)c2c1C(c1ccccc1F)CC(=O)N2` (stereo not drawn) [CBK287898], the “% of control remaining” value came to 89.5798.

On to `CN(C)CC(=O)N1CCN(c2ccc(C(=O)c3ccccc3)cc2[N+](=O)[O-])CC1` [CBK296699], for which the “% of control remaining” value was 94.4545.

For `Cc1ccc(C(=O)CN2CCCC3(C2)NCCc2c3[nH]c3c(C)cccc23)cc1` (stereo not drawn) [CBK039546], the “% of control remaining” value is recorded as 87.2176.

In the case of `Cc1cc(C)c(NC(=O)N(CCCO)Cc2ccncc2)c(Cl)c1` [CBK304406], the “% of control remaining” value was 46.2387.

In the case of `CC(=O)c1ccc(-c2cn3ccnc3c(N3CCN(C)CC3)n2)s1` [CBK037957], the “% of control remaining” value is reported as 115.677.

As for `Cc1ccnn1CCC(=O)NC1(c2ccc(F)cc2)CCCC1` [CBK283600], the “% of control remaining” value came to 95.5014.

For `Cc1ccc(Nc2nc(Cn3nc(C(=O)O)c4ccccc4c3=O)cs2)cc1` [CBK296989], the “% of control remaining” value is given as 108.627.
